Reference: a collection of fitness landscapes (doi:10.1016/j.celrep.2020.107928)
The full ranking holds about 81,000 sequences; the median of “one-hybrid fitness for binding NBS DNA” is about -0.1, and the highest 2% start at about 0.36. The list shows a part of the results.

B1: Caulobacter ParB omega fusion; a variant is named by its letters at X, in order, B8GW30 (parent)
chain: MESVVVGEPGMSEGRRGLGRGLSALLGEVDAAPAQAPGEQLGGSREAPIEILQRNPDQPRRTFREEDLEDLSNSIREKGVLQPILVRPSPDTAGEYQIVAGERAWRAAQRAGLKTVPIMVRELDDLAVLEIGIIENVQRADLNVLEEALSYKVLMEKFERTQENIAQTIGKSXSHVANXMRLLXLPDEVQSYLVSGELTAXHARAIAAAADPVALAKQIIEGGLSVRETEALARKAPNLSAGKSKGGRPPRVKDTDTQALESDLSSVLGLDVSIDHRGSTGTLTITYATLEQLDDLCNRLTRGI

Variants of: B1
Test: one-hybrid fitness for binding NBS DNA (the Noc-binding site; scaled: cognate 1, non-cognate 0); higher = stronger binding
Conditions: with NBS DNA site
How it was run: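 In E. coli USO, a HIS3 reporter with its site placed 19 bp from the promoter was used to select Caulobacter ParB variants randomised at four specificity codons. Growth lasted 48 hours at 37°C on histidine-free M9 containing 0.1 mM IPTG and 5 mM 3-AT. Fitness was taken as the log change in variant-to-wild-type read ratio from Illumina sequencing of pre- and post-selection plasmids, rescaled between the non-cognate and cognate sites.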

| Variant | one-hybrid fitness for binding NBS DNA |
| --- | --- |
| NPEC | ≤ 0.2 |
| QVMC | ≤ 0.2 |
| GSKG | ≤ 0.2 |
| SYTW | ≤ 0.2 |
| PEGS | ≤ 0.2 |
| GSCV | ≤ 0.2 |
| QKQE | ≤ 0.2 |
| SHMR | ≤ 0.2 |
| RRLW | ≤ 0.2 |
| QGIV | ≤ 0.2 |
| SRAQ | ≤ 0.2 |
| RTFA | ≤ 0.2 |
| RVES | ≤ 0.2 |
| ESKS | ≤ 0.2 |
| QKRK | 0.429 |
| ARTM | ≤ 0.2 |
| SRSV | ≤ 0.2 |
| SSSV | ≤ 0.2 |
| NCSG | ≤ 0.2 |
| KWMV | ≤ 0.2 |
| KLLI | ≤ 0.2 |
| PMTI | ≤ 0.2 |
| VSCI | ≤ 0.2 |
| WTAS | ≤ 0.2 |
| SKPS | ≤ 0.2 |

| Variant | one-hybrid fitness for binding NBS DNA |
| --- | --- |
| YNGW | ≤ 0.2 |
| VTKA | ≤ 0.2 |
| PPYD | ≤ 0.2 |
| YHSN | ≤ 0.2 |
| SIHD | ≤ 0.2 |
| PYDG | ≤ 0.2 |
| FSHT | ≤ 0.2 |
| DRTI | ≤ 0.2 |
| HAIV | ≤ 0.2 |
| GLSS | ≤ 0.2 |
| VKNG | ≤ 0.2 |
| GFWS | ≤ 0.2 |
| PEEL | ≤ 0.2 |
| VEAL | ≤ 0.2 |
| QKQL | ≤ 0.2 |
| PTNC | ≤ 0.2 |
| MTPC | ≤ 0.2 |
| GKSP | ≤ 0.2 |
| VAIH | ≤ 0.2 |
| NQSW | ≤ 0.2 |
| TSDV | ≤ 0.2 |
| GRFV | ≤ 0.2 |
| QPLY | ≤ 0.2 |
| SLQR | ≤ 0.2 |
| GELS | ≤ 0.2 |

| Variant | one-hybrid fitness for binding NBS DNA |
| --- | --- |
| HIVF | ≤ 0.2 |
| HCVS | ≤ 0.2 |
| SVQC | ≤ 0.2 |
| QTSQ | 0.306 |
| HVLC | ≤ 0.2 |
| QNTF | ≤ 0.2 |
| ENAK | ≤ 0.2 |
| LLHG | ≤ 0.2 |
| DFDT | ≤ 0.2 |
| NMDD | ≤ 0.2 |
| LWRH | ≤ 0.2 |
| FHHS | ≤ 0.2 |
| IVRV | ≤ 0.2 |
| VCIL | ≤ 0.2 |
| NNPF | ≤ 0.2 |
| RECD | ≤ 0.2 |
| KEPG | ≤ 0.2 |
| RGCE | ≤ 0.2 |
| YYMR | ≤ 0.2 |
| MDRG | ≤ 0.2 |
| ICLT | ≤ 0.2 |
| FRMR | ≤ 0.2 |
| RGYW | ≤ 0.2 |
| KRAK | ≤ 0.2 |
| NQIG | ≤ 0.2 |

| Variant | one-hybrid fitness for binding NBS DNA |
| --- | --- |
| NYVT | ≤ 0.2 |
| SDTC | ≤ 0.2 |
| CNNM | ≤ 0.2 |
| MNMS | ≤ 0.2 |
| VNLA | ≤ 0.2 |
| QYVN | ≤ 0.2 |
| ILAW | ≤ 0.2 |
| HQIT | ≤ 0.2 |
| ECSL | ≤ 0.2 |
| NSWT | ≤ 0.2 |
| NLVT | ≤ 0.2 |
| NAAQ | ≤ 0.2 |
| CSHR | ≤ 0.2 |
| KLVQ | ≤ 0.2 |
| HNWD | ≤ 0.2 |
| IADY | ≤ 0.2 |
| TKRI | ≤ 0.2 |
| LNAA | ≤ 0.2 |
| KATR | ≤ 0.2 |
| QRIG | ≤ 0.2 |
| ETEY | ≤ 0.2 |
| RWQS | ≤ 0.2 |
| TVKV | ≤ 0.2 |
| PFIY | ≤ 0.2 |
| NCAR | ≤ 0.2 |

| Variant | one-hybrid fitness for binding NBS DNA |
| --- | --- |
| EIDT | ≤ 0.2 |
| HGFS | ≤ 0.2 |
| CSSY | ≤ 0.2 |
| PNNC | ≤ 0.2 |
| ITSE | ≤ 0.2 |
| QIQC | ≤ 0.2 |
| LILM | ≤ 0.2 |
| QILS | ≤ 0.2 |
| FCHR | ≤ 0.2 |
| VLCG | ≤ 0.2 |
| WCNY | ≤ 0.2 |
| RMVP | ≤ 0.2 |
| RRMS | 0.628 |
| SVFF | ≤ 0.2 |
| TLSR | ≤ 0.2 |
| TTAI | ≤ 0.2 |
| TGYV | ≤ 0.2 |
| IEER | ≤ 0.2 |
| QYGI | ≤ 0.2 |
| YVYM | ≤ 0.2 |
| HYTT | ≤ 0.2 |
| WLIK | ≤ 0.2 |
| LVQS | ≤ 0.2 |
| RKHI | ≤ 0.2 |
| EHEF | ≤ 0.2 |

| Variant | one-hybrid fitness for binding NBS DNA |
| --- | --- |
| LDAS | ≤ 0.2 |
| LPRV | ≤ 0.2 |
| TRGN | ≤ 0.2 |
| VITK | ≤ 0.2 |
| RYQQ | ≤ 0.2 |
| RYVE | ≤ 0.2 |
| HVKF | ≤ 0.2 |
| TIPL | ≤ 0.2 |
| QRGF | 0.33 |
| INVC | ≤ 0.2 |
| QILY | ≤ 0.2 |
| RHQY | ≤ 0.2 |
| CKSE | ≤ 0.2 |
| SVIY | ≤ 0.2 |
| TWTI | ≤ 0.2 |
| PPFM | ≤ 0.2 |
| NITK | ≤ 0.2 |
| SEPM | ≤ 0.2 |
| TKNR | ≤ 0.2 |
| FKAR | ≤ 0.2 |
| RPYP | ≤ 0.2 |
| HQTE | ≤ 0.2 |
| STKA | ≤ 0.2 |
| TESE | ≤ 0.2 |
| PVEF | ≤ 0.2 |

| Variant | one-hybrid fitness for binding NBS DNA |
| --- | --- |
| VWRR | ≤ 0.2 |
| RDAQ | ≤ 0.2 |
| NTSL | ≤ 0.2 |
| EDMY | ≤ 0.2 |
| PGRP | ≤ 0.2 |
| ELVR | ≤ 0.2 |
| IIRY | ≤ 0.2 |
| CVTC | ≤ 0.2 |
| LRSL | ≤ 0.2 |
| RHIM | ≤ 0.2 |
| HEGW | ≤ 0.2 |
| QSTY | ≤ 0.2 |
| YTGR | ≤ 0.2 |
| QIPS | ≤ 0.2 |
| QHLQ | ≤ 0.2 |
| YCAQ | ≤ 0.2 |
| VNKV | ≤ 0.2 |
| VLMG | ≤ 0.2 |
| TLVA | ≤ 0.2 |
| CSDR | ≤ 0.2 |
| RERT | ≤ 0.2 |
| FWDI | ≤ 0.2 |
| ANNC | ≤ 0.2 |
| TMSG | ≤ 0.2 |
| AQNP | ≤ 0.2 |

| Variant | one-hybrid fitness for binding NBS DNA |
| --- | --- |
| EDRY | ≤ 0.2 |
| IEKF | ≤ 0.2 |
| KHQT | ≤ 0.2 |
| LLNV | ≤ 0.2 |
| DPNH | ≤ 0.2 |
| AKPE | ≤ 0.2 |
| SDYN | ≤ 0.2 |
| PIEL | ≤ 0.2 |
| KTCW | ≤ 0.2 |
| CQLP | ≤ 0.2 |
| AQPM | ≤ 0.2 |
| EWSR | ≤ 0.2 |
| ELRC | ≤ 0.2 |
| RTVD | ≤ 0.2 |
| YCVL | ≤ 0.2 |
| KHNR | ≤ 0.2 |
| ARDG | ≤ 0.2 |
| IMYC | ≤ 0.2 |
| PSSI | ≤ 0.2 |
| EAES | ≤ 0.2 |
